Out of some 310,000 compounds screened, about 2,200 (0.71%) showed an effect of 50% or more. The effect is printed as a negative number. This is one part of the list.
molecular target: human ether-à-go-go-related gene (hERG) potassium channel (human, UniProt Q12809); assay: primary screen, population patch clamp on CHO cells stably expressing hERG
Sequence (Q12809 whole entry, looked up): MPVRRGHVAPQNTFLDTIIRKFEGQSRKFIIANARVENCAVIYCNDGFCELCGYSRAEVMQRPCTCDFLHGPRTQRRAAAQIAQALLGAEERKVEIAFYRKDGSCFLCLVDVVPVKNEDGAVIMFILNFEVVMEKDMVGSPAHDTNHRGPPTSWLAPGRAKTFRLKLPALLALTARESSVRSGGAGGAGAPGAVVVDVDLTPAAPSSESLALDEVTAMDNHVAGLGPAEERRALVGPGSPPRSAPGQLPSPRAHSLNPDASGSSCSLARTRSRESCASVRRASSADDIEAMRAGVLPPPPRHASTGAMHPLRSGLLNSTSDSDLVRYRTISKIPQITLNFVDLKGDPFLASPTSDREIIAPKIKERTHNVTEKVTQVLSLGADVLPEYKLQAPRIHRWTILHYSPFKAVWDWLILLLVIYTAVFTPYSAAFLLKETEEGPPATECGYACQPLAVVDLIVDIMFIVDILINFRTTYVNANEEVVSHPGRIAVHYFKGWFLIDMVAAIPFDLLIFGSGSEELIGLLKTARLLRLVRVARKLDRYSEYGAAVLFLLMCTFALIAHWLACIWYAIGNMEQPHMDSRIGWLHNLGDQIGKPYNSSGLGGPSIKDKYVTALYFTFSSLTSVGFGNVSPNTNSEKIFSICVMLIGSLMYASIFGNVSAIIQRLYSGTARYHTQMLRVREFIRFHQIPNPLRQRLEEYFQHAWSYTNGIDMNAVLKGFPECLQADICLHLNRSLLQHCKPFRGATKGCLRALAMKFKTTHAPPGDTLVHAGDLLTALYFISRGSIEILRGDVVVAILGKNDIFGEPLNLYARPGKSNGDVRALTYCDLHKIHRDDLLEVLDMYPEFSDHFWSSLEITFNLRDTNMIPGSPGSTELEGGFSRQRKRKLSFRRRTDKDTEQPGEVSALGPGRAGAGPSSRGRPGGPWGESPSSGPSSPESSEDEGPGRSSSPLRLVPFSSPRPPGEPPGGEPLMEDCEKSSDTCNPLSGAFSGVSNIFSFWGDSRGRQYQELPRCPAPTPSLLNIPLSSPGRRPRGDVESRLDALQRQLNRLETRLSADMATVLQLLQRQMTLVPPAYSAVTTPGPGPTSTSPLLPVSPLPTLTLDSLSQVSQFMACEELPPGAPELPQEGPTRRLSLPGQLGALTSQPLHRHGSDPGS

Going from COc1ccc2cc(C3CC(c4cccs4)=NN3C(C)=O)c(Cl)nc2c1 (stereo not shown) to COc1ccc(OC)c(-c2cc(C(=O)N3CCN(c4ncccn4)CC3)c3ccccc3n2)c1, the “hERG current change (%, negative = inhibition) at 1uM” value falls from 18.8% to 0.0778%.

Going from COc1ccc(/C=C/C(=O)OCC(=O)Nc2c(C)cccc2C)cc1 to COc1ccc(-c2cn(Cc3cccc(OC)c3)nn2)cc1, the “hERG current change (%, negative = inhibition) at 1uM” value rises from -6.41% to 3.38%.

Going from O=C(O)C1CC(=O)N(CCOc2ccccc2)C1 (stereo not shown) to O=C(COc1ccccc1)NC1CCN(Cc2ccccc2)CC1, the “hERG current change (%, negative = inhibition) at 1uM” value falls from 1.69% to -8.39%.

Compared with CC[C@H](C)NC(=O)c1ccc(Cn2c(=S)[nH]c3c([nH]c4ccc(OC)cc43)c2=O)cc1, COc1ccc(C(=O)NCC(=O)N2CCN(c3ccc(Cl)cc3)CC2)cc1 is higher in “hERG current change (%, negative = inhibition) at 1uM” value: 0.348% for the first, 13.6% for the second.

Compared with CC(=O)c1ccc(Oc2nc(-c3cccnc3)nc3ccccc23)cc1, Cl.Oc1ccc(CCNc2c3ccccc3nc3ccccc23)cc1O is lower in “hERG current change (%, negative = inhibition) at 1uM” value: 6.11% for the first, -3.93% for the second.

Compared with CCC(C)N1CCN(S(=O)(=O)c2ccc(NC(C)=O)cc2)CC1 (stereo not shown), N#Cc1ccc(S(=O)(=O)N2CCN(c3ncccn3)CC2)cc1 is higher in “hERG current change (%, negative = inhibition) at 1uM” value: 0.454% for the first, 5.13% for the second.

Going from O=C(CCn1nc(-c2ccccc2)c2ccccc2c1=O)NCC1CCCO1 (stereo not shown) to Cc1ccccc1CN1CCN(C(=O)Cc2ccccc2)CC1.Cl, the “hERG current change (%, negative = inhibition) at 1uM” value rises from 6.89% to 18.6%.

Going from O=C(CN1C(=O)c2ccccc2S1(=O)=O)N1CCN(c2cccc(Cl)c2)CC1 to CC(C)c1ccc(CN2C(=O)c3ccccc3S2(=O)=O)cc1, the “hERG current change (%, negative = inhibition) at 1uM” value rises from 11.8% to 13%.

Compared with CCCn1c(SCC(N)=O)nnc1-c1ccco1, CC(C)CCn1c(SCC(=O)c2ccccc2)nc2c1c(=O)[nH]c(=O)n2C is lower in “hERG current change (%, negative = inhibition) at 1uM” value: 14.9% for the first, 10.8% for the second.

Going from CCOc1ccc(-c2c(C(=O)N/N=C/c3ccc(OC(C)C)cc3)nnn2-c2nonc2N)cc1 to CCOc1ccc(C2SCC(=O)N2c2c(C)n(C)n(-c3ccccc3)c2=O)cc1 (stereo not shown), the “hERG current change (%, negative = inhibition) at 1uM” value falls from 13.7% to 12.3%.

Compared with CCOC(=O)N1CCN(S(=O)(=O)c2ccc(C(=O)Nc3sc4c(c3C(=O)OC)CCN(C)C4)cc2)CC1.Cl, Cc1ccc(S(=O)(=O)N2CCN(C(=O)COC(=O)CCc3ccccc3)CC2)c(C)c1 is higher in “hERG current change (%, negative = inhibition) at 1uM” value: 11% for the first, 14.9% for the second.

Going from CCOc1cc(S(=O)(=O)N2CCN=C2Cc2ccccc2)ccc1F to O=C(O)c1cccc(S(=O)(=O)N(Cc2ccccc2)c2ccc(Cl)cc2)c1, the “hERG current change (%, negative = inhibition) at 1uM” value rises from -4.26% to 15.8%.

Compared with NC(Cc1cc(O)c(O)cc1O)C(=O)O (stereo not shown), CCOC(=O)C1=C(O)/C(=C/c2cccc(OC)c2O)N=C1C is higher in “hERG current change (%, negative = inhibition) at 1uM” value: 7.7% for the first, 13.4% for the second.

First: C/C=C(/C)C(=O)Nc1cccc(C2=NOC3(C2)C[C@@H](C(N)=O)N(C(=O)CC(c2ccccc2)c2ccccc2)C3)c1 (stereo partly shown)
Second: CN(C)C(CNC(=O)C1CCN(S(=O)(=O)c2ccccc2)CC1)c1ccccc1 (stereo not shown)
The “hERG current change (%, negative = inhibition) at 1uM” value of the first is higher: 9.03% for the first, 7.94% for the second.

Going from COc1ccccc1S(=O)(=O)NCc1ccc(C(=O)N(C)Cc2ccc(F)cc2)cc1 to COc1ccc(OC)c(NC(=O)c2cccc(S(=O)(=O)N(Cc3ccccc3)c3ccccc3OC)c2)c1, the “hERG current change (%, negative = inhibition) at 1uM” value falls from 10.2% to 5.17%.

Going from CCOC(CNC(=O)Cn1nc(C)c2ccccc21)OCC to O=C(Cn1cnc([N+](=O)[O-])c1)NCCc1ccccc1, the “hERG current change (%, negative = inhibition) at 1uM” value falls from 8.42% to 2.82%.

Going from CCOC(=O)C1CCCN(C(=O)c2cc(-c3ccncc3)nc3ccccc23)C1 (stereo not shown) to O=C(CSc1nc(C2CC2)nc2ccccc12)Nc1cccc(O)c1, the “hERG current change (%, negative = inhibition) at 1uM” value rises from -8.26% to 5.02%.

First: CCOC(=O)COc1cccc2c(=O)n(CC(=O)N3CCc4ccccc43)ccc12
Second: O=C(NCc1ccco1)C(=O)c1cn(CC(=O)N2CCCC2)c2ccccc12
The “hERG current change (%, negative = inhibition) at 1uM” value of the first is higher: 9.56% for the first, -8.79% for the second.

First: O=C(c1cc([N+](=O)[O-])ccc1N1CCOCC1)N1CCN(S(=O)(=O)c2cc(Cl)ccc2Cl)CC1
Second: Cc1cc(=O)oc2c(C)c(OCC(=O)N3CCN(c4ccc(F)cc4)CC3)ccc12
The “hERG current change (%, negative = inhibition) at 1uM” value of the first is higher: 3.49% for the first, 2.34% for the second.

Going from CCN(Cc1ccccc1)c1ccc(N=Nc2nn(C)c(C)c2[N+](=O)[O-])cc1 to COc1ccc(N(Cc2cc3ccccc3[nH]c2=O)S(C)(=O)=O)cc1, the “hERG current change (%, negative = inhibition) at 1uM” value rises from 7.07% to 11.2%.

First: NC(=O)NC(CC(=O)OCC(=O)NC(=O)NCc1ccco1)c1ccc(Cl)cc1 (stereo not shown)
Second: O=C(NCc1ccco1)Nc1ccccc1Cl
The “hERG current change (%, negative = inhibition) at 1uM” value of the first is higher: 8.08% for the first, -5.72% for the second.

Compared with O=S(=O)(c1ccc(-c2cc(C(F)(F)F)on2)s1)N1CCCC1, CCc1ccc(NC(=O)C2CCN(S(=O)(=O)c3ccc4c(c3)NC(=O)CO4)CC2)cc1 is higher in “hERG current change (%, negative = inhibition) at 1uM” value: 7.19% for the first, 15.5% for the second.

Going from CCc1[nH]nc(C(=O)N2CCCC(CO)(Cc3ccc(F)cc3F)C2)c1C (stereo not shown) to O=C1CCCc2c1nc(-c1ccc(F)cc1)n2O, the “hERG current change (%, negative = inhibition) at 1uM” value falls from 16.4% to 4.51%.

First: Fc1ccccc1CSc1nc2ncccc2[nH]1
Second: O=C(Nc1cnccn1)C1c2ccccc2Oc2ccccc21
The “hERG current change (%, negative = inhibition) at 1uM” value of the first is higher: 0.402% for the first, 0.161% for the second.

Compared with COC(=O)C1=C(O)/C(=C\c2ccc(CNC(=O)C(=O)Nc3ccc(C)c(C)c3)o2)N=C1C, Cc1c(C)c2c(OCC(=O)N[C@@H](C(=O)O)c3ccccc3)cc3c(c2oc1=O)CCC(C)(C)O3 is higher in “hERG current change (%, negative = inhibition) at 1uM” value: -2.4% for the first, 12.3% for the second.

Compared with COc1ccc(S(=O)(=O)NC2CC(=O)N(c3ccc4c(c3)OCCO4)C2)cc1 (stereo not shown), Cc1nc(Nc2ccc3c(c2)OCCO3)c2nnn(Cc3ccccc3Cl)c2n1 is lower in “hERG current change (%, negative = inhibition) at 1uM” value: 9.65% for the first, -3.08% for the second.

Compared with COc1ccccc1OC1=NS(=O)(=O)c2ccccc21, CCCN(CC(=O)Nc1ccccc1OC)C(=O)c1ccc(COc2ccccc2)o1 is lower in “hERG current change (%, negative = inhibition) at 1uM” value: 6.53% for the first, 1.84% for the second.

First: CC(=O)N/N=C\c1cccc(OC/C=C/c2ccccc2)c1
Second: CCN(CC)S(=O)(=O)c1ccc(NC(=O)COC(=O)CNS(=O)(=O)/C=C/c2ccccc2)cc1
The “hERG current change (%, negative = inhibition) at 1uM” value of the first is higher: 11.6% for the first, 3.26% for the second.

First: COc1ccc(-c2cnc[nH]2)cc1
Second: Cc1ccc(-c2cc(C(F)(F)F)c(C#N)c(=O)[nH]2)cc1
The “hERG current change (%, negative = inhibition) at 1uM” value of the first is higher: 16.9% for the first, 1.83% for the second.

First: CN(CC(=O)Nc1cccc(F)c1)C(=O)CCCc1cccs1
Second: Cc1cccc(NC(=O)CCNS(=O)(=O)c2cccc3nsnc23)c1
The “hERG current change (%, negative = inhibition) at 1uM” value of the first is lower: 0.946% for the first, 18.7% for the second.

Compared with Cn1nc(-c2ccccc2)c(/C=N/O)c1Cl, NC(N)=NC(N)=Nc1ccccc1 is lower in “hERG current change (%, negative = inhibition) at 1uM” value: 9.02% for the first, 3.8% for the second.

First: Cc1ccccc1NC(=O)CCNS(=O)(=O)c1cccc2nsnc12
Second: O=C(CSc1nc2ccccc2s1)NNC(=O)Nc1ccc(Cl)c(Cl)c1
The “hERG current change (%, negative = inhibition) at 1uM” value of the first is higher: 11.5% for the first, 5.05% for the second.

Compared with O=C(NCCCN1CCN(Cc2ccccc2Cl)CC1)Nc1ccccc1, COc1ccccc1N1CCN(c2cc(=O)n(-c3ccc(Cl)cc3)c(=O)[nH]2)CC1 is higher in “hERG current change (%, negative = inhibition) at 1uM” value: -8.54% for the first, 20.9% for the second.

First: COc1ccc(C)cc1NC(=O)CSc1ccc(-c2ccccn2)nn1
Second: Cc1cc(CSc2ccccc2)ccc1NC(=O)c1ccc(Cl)c([N+](=O)[O-])c1
The “hERG current change (%, negative = inhibition) at 1uM” value of the first is higher: 20.3% for the first, 11.6% for the second.

First: Cc1ccc(N2C(=O)SC(N(CC(=O)O)c3cccc(C)c3)C2=O)cc1 (stereo not shown)
Second: CCOC(=O)c1ccc(N2C(=O)C=CC2=O)cc1
The “hERG current change (%, negative = inhibition) at 1uM” value of the first is higher: -0.336% for the first, -8.86% for the second.

Going from CCCNCc1cc(Cl)c(OCC)c(Cl)c1.Cl to CCCNc1nc(Nc2ccc(C)c(Cl)c2)c2cnn(C)c2n1, the “hERG current change (%, negative = inhibition) at 1uM” value falls from 17% to 16.1%.

Going from Cc1ccc(N/N=C(\C#N)C(=N)N2CCCCC2)cc1 to Cc1c([N+](=O)[O-])cc(C(=O)Oc2ccc(Br)cc2C(=S)N2CCCCC2)cc1[N+](=O)[O-], the “hERG current change (%, negative = inhibition) at 1uM” value rises from -3.22% to 23.4%.

Going from COc1cc(CCCN2CCNC[C@@H]2Cc2ccccc2)cc(OC)c1OC to CCCc1nc(NCc2ccccc2)c(C#N)c2c1CCCC2, the “hERG current change (%, negative = inhibition) at 1uM” value falls from 10.8% to 3.61%.

Going from Cc1cccc(C(=O)NNC(=O)C(=O)NC(C)(C)C)c1 to O=C(O)C1C2CCC(O2)C1C(=O)Nc1cccc(Cl)c1 (stereo not shown), the “hERG current change (%, negative = inhibition) at 1uM” value falls from 5.95% to 5.9%.

Going from COc1ccc(NC(=O)C2C3C=CC4(O3)C2C(=O)N(CCCN2CCCC(C)C2)C4C(=O)NC2CCCCC2)cc1 (stereo not shown) to CCn1c(C(=O)N2CCC(C(=O)N3CCN(c4ccccn4)CC3)CC2)cc2sccc21, the “hERG current change (%, negative = inhibition) at 1uM” value falls from 17% to -24.3%.

Compared with NC1=NC[C@H](CC2CCCCC2)N1CCc1cc(C(F)(F)F)cc(C(F)(F)F)c1, CCC1CCCCN1CC(=O)c1c(C)[nH]c2cc(C)ccc12 (stereo not shown) is lower in “hERG current change (%, negative = inhibition) at 1uM” value: 9.02% for the first, -1.26% for the second.

Compared with CCOc1ccc(OCC)c(-c2c(=O)n(OCc3ccccc3Br)c3ccccc3[n+]2[O-])c1, CCC(=O)N1CCC2(CC1)Oc1ccc(Cl)cc1C(=O)C21CC(c2cccnc2)=NO1 (stereo not shown) is higher in “hERG current change (%, negative = inhibition) at 1uM” value: 4.97% for the first, 12.6% for the second.

In the case of O=C(CC1NCCNC1=O)Nc1ccc([N+](=O)[O-])cc1 (stereo not shown), the “hERG current change (%, negative = inhibition) at 1uM” value is reported as 9.61%.
